Reference: publication PMC4336329 (PLoS ONE, 2015)
The campaign covered roughly 310,000 compounds. About 14,000 (4.5%) showed an effect of 50% or more. Effects have a minus sign here. This is one part of the list.

biological target: human ether-à-go-go-related gene (hERG) potassium channel (human, UniProt Q12809); assay: primary screen, population patch clamp on CHO cells stably expressing hERG
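Further: peak tail current of the secondary pulse compared with the same well before compound.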

Sequence of human ether-à-go-go-related gene (hERG) potassium channel (Q12809 whole entry, looked up): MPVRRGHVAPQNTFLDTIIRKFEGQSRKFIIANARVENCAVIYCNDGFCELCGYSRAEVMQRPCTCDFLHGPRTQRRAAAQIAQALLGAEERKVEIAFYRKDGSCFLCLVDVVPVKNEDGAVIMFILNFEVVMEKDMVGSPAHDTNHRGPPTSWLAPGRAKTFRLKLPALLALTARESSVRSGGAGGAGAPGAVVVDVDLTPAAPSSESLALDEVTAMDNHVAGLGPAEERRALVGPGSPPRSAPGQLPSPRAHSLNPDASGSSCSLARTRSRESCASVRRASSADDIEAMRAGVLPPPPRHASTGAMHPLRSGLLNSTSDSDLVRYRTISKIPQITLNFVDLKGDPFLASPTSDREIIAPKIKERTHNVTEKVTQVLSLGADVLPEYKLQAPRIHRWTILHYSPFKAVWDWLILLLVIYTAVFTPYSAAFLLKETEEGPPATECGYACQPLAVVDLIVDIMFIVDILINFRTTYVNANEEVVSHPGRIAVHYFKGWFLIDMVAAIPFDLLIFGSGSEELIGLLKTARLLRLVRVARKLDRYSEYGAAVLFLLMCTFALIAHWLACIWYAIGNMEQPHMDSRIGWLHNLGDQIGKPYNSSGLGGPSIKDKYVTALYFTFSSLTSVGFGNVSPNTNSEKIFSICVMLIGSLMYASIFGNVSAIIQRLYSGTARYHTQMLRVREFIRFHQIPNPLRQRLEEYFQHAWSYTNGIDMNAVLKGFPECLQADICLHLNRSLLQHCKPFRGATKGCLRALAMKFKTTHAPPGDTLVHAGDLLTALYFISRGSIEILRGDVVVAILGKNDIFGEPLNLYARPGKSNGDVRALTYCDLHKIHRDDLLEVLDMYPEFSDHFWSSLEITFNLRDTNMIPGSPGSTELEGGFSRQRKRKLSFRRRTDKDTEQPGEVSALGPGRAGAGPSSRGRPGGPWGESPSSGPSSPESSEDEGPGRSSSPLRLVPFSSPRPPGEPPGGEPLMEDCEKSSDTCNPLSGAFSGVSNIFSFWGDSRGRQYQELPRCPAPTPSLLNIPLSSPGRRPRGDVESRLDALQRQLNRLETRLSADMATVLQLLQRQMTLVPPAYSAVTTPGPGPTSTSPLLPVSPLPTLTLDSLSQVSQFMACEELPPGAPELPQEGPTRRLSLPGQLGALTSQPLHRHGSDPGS

| SMILES | hERG current change (%, negative = inhibition) at 10uM |
| --- | --- |
| S=C(NC1CCCCC1)N1CCOCCOCCN(C(=S)NC2CCCCC2)CCOCCOCC1 | -0.524% |
| O=C(CN1CCN(Cc2ccccc2)CC1)N1CCN(c2ccccc2)CC1 | -13.4% |
| OCC1(Cc2ccccc2)CCN(Cc2cc3ccccc3o2)CC1 | -51.7% |
| COC(=O)C1=C(CS(=O)(=O)c2ccccc2)NC(=O)NC1c1ccc(OC)c(OC)c1 (stereo not drawn) | 19% |
| CCC1(c2ccccc2)NC(=O)N(CC(=O)N(CC(=O)Nc2ccccc2C(F)(F)F)Cc2ccco2)C1=O (stereo not drawn) | -6.07% |
| CCCNC(=O)CNC(=S)N(Cc1cc(OC)c(OC)c(OC)c1)C1CCCC1 | -3.77% |
| O=C(/C=C/c1cccs1)NCc1cccnc1 | 3.25% |
| COCCn1c(SCc2cccnc2)nnc1-c1c[nH]c2ccccc12 | -25.8% |
| Cc1ccc(C)c(OCc2cc(C(=O)N3CC[C@@H]4CCCC[C@H]4C3)no2)c1 | 1.43% |
| O=C(N/N=C/c1ccc(-c2ccccc2[N+](=O)[O-])o1)c1cncc(Br)c1 | -6.97% |
| COc1ccc(C(=O)c2c(-c3cccc(C)c3)oc3ccc(N4CCOCC4)cc23)cn1 | 14.6% |
| CC1CCCCC1NS(=O)(=O)c1ccc(S(=O)(=O)N2CCCC2)cc1 (stereo not drawn) | -24% |
| COc1cccc(CN2CC(C(=O)N(C)Cc3ccnc4ccccc34)CCC2=O)c1 (stereo not drawn) | -10.2% |
| COc1ccccc1OCCCCCCN1CCOCC1.O=C(O)C(=O)O | 0.0271% |
| O=C(NCCC1=CCCCC1)c1ccc2c(c1)N(Cc1ccccc1)C(=O)CS2 | -12.2% |
| Cc1cc(C(=O)N2CCCC(N3CCN(c4cccc(Cl)c4)CC3)C2)nc(C)n1 (stereo not drawn) | -19.8% |
| O=C(NN1C(=O)C2C3C=CC(O3)C2C1=O)c1cccc(Br)c1 (stereo not drawn) | 20.5% |
| COC(=O)n1c(SC)nc2ccccc21 | 10.9% |
| Cl.NCCNC(=O)c1c(O)c2cccc3c2n(c1=O)CCC3 | 3.17% |
| COc1ccc(-c2cc(C(=O)NC3CCCC3)no2)cc1OC | -10.2% |
| O=C(CNC(=O)C1CCCCC1)Nc1cc(Cl)cc(Cl)c1 | 6.49% |
| COc1ccc(Nc2nc(C(=O)N3CCc4ccccc4C3)cs2)cc1 | 7.03% |
| CC(C)CNC1CCS(=O)(=O)C1.Cl (stereo not drawn) | 9.26% |
| COc1ccc([N+](=O)[O-])cc1NC(=O)COC(=O)c1ccc(O)cc1 | 13.1% |
